The test deals with BALB/c mice challenged with E. coli K12. The note with it: mouse, in vivo.

SMILES strings stand for the structures. Bridge positions count the residues as written; N and C are the ends. Peptide text beside a SMILES is read from it.

With `CC[C@H](C)[C@@H]1NC(=O)[C@@H]2CSSC[C@H](NC(=O)[C@H](CCCNC(=N)N)NC(=O)[C@@H]3CSSC[C@H](NC1=O)C(=O)N[C@@H]([C@@H](C)O)C(=O)N[C@@H](CCCNC(=N)N)C(=O)NCC(=O)N[C@@H](Cc1ccccc1)C(=O)N3)C(=O)N[C@@H](CC(C)C)C(=O)N[C@H]1CSSC[C@H](NC(=O)[C@H](C(C)C)NC(=O)CNC(=O)[C@H](CCCNC(=N)N)NC(=O)[C@H](CCCNC(=N)N)NC1=O)C(=O)N[C@@H](CCCNC(=N)N)C(=O)N2` [RTD-1] (cyclo(GFCRCLCRRGVCRCICTR); disulfide 3-16, 5-14, 7-12), the “plasma cytokine/chemokine levels in uninfected animals” value is “unaltered”. For the same molecule, where the note is “sc, 5 mg/kg”, the “decreases of plasma IL-1α, IL-1β and VEGF” value was “statistically significant”; the “plasma cytokine/chemokine levels (IL-1α, IL-1β, IL-6, IL-10, CXCL1, CCL2, CCL3, CXCL5, TNF, VEGF)” value was “reductions of all cytokines”.

Values taken from PMC3516535, “Rhesus Macaque Theta Defensins Suppress Inflammatory Cytokines and Enhance Survival in Mouse Models of Bacteremic Sepsis” (PLoS ONE, 2012).
